Paper PMC4336329 (PLoS ONE, 2015)
About 14,000 (4.5%) of roughly 310,000 compounds showed an effect of 50% or more. The effect is printed as a negative number. The list shows a part of the results.

target: human ether-à-go-go-related gene (hERG) potassium channel (human, UniProt Q12809); assay: primary screen, population patch clamp on CHO cells stably expressing hERG
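Further: peak tail current of the secondary pulse compared with the same well before compound.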

human ether-à-go-go-related gene (hERG) potassium channel, sequence (Q12809 whole entry, looked up): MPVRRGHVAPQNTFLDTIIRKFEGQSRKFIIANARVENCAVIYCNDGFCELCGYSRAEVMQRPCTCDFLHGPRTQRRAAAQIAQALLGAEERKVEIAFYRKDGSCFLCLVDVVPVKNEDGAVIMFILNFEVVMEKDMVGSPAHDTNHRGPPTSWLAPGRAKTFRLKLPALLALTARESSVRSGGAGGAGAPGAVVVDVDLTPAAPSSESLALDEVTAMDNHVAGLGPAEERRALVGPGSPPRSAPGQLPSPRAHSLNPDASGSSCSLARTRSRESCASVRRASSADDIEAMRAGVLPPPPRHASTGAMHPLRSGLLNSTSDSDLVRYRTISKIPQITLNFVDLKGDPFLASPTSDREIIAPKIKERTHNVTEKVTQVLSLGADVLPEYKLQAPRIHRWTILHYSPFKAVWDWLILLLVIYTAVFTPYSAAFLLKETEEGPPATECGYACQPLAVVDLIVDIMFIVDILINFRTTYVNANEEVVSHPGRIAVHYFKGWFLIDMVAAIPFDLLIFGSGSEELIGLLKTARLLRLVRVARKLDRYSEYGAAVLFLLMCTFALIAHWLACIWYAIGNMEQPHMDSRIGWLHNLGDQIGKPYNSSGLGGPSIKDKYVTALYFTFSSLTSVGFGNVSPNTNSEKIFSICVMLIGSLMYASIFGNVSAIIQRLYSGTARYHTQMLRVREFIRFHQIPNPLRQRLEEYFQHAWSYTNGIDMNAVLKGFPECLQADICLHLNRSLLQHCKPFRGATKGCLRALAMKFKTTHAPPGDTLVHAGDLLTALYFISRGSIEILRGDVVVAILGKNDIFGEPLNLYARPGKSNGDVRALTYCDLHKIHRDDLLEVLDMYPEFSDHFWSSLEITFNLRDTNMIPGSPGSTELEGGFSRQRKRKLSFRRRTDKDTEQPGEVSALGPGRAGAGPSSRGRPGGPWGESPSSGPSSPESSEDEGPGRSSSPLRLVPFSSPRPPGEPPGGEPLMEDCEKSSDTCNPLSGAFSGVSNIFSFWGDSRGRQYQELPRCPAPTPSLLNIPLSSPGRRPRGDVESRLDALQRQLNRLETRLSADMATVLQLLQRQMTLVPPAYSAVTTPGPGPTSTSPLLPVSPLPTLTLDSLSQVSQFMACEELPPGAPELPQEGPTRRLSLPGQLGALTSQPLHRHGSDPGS

Structure (SMILES) | hERG current change (%, negative = inhibition) at 10uM [%]
CCN(Cc1cc2cc(C)ccc2[nH]c1=O)C(=O)c1cccc(OC)c1 | -22.3
Cc1ccccc1C(=O)NCCSc1ccccc1 | -6.53
CC(=O)/C(=N\Nc1ccccc1)Oc1ccc([N+](=O)[O-])cc1 | -8.01
Cc1c(C(=O)N2CCOCC2)[nH]c2ccc(OCc3ccccc3)cc12 | -13.2
CCOc1ccc(NS(=O)(=O)c2ccc(C(=O)NCC(c3ccco3)N3CCCC3)cc2)cc1 (stereo not drawn) | -23.1
O=C(CSc1cn[nH]n1)Nc1cccc(C(=O)O)c1 | 0.934
O=C(O)c1cccc(Cn2cccn2)c1 | 8.58
COCCNC(=O)Nc1ccc2nc(C)sc2c1 | 4.08
O=C(NCC1CCCO1)c1ccc(COc2ccccc2Br)cc1 (stereo not drawn) | -32
COc1ccc(CCn2c(C)cc(C(=O)CSc3nnnn3C)c2C)cc1 | 0.08
Cc1nc2nc(-c3ccc(Cl)cc3)nn2c(C)c1Cl | 8.82
S=c1[nH]nc(C23CC4CC(CC(C4)C2)C3)n1Cc1ccco1 | -13.7
COC(=O)c1c(SCc2cccc3ccccc23)nc(=O)[nH]c1C | 7.87
CN(C)Cc1c(C(=O)Nc2ccccc2)[nH]c2ccccc12 | -30.1
Cc1ccc(-n2ccnc(SCC(=O)NC3CCCCC3)c2=O)cc1F | 15.3
O=C1c2ccccc2C(=O)N1CC1c2ccccc2CCN1C(=O)CN1CCOCC1 (stereo not drawn) | -24.3
CC(=O)NCCc1ccc(S(=O)(=O)Nc2cccnc2)cc1 | 17.2
O=C(NC1CCCCC1)N(Cc1nc2ccccc2c(=O)[nH]1)C1CCCCC1 | 2.79
CCOc1cccc(C(=O)Nc2ccccc2OC(F)F)c1 | -23.8
CC(C)C[C@H](NC(=O)[C@H]1N2C(=O)c3ccccc3C2SC1(C)C)C(=O)N[C@@H](Cc1ccccc1)C(=O)O (stereo partly drawn) | 11.3
CC(=O)Nc1ccc(S(=O)(=O)NNC(=O)NC23CC4CC(CC(C4)C2)C3)cc1 | 11.4
CC(=O)Nc1ccc(NC(=O)CSc2nnc(NC(=O)C3CC3)s2)cc1 | 12.2
Cc1noc(C)c1S(=O)(=O)N1CCN(c2ccc([N+](=O)[O-])cc2)CC1 | -69

Structure (SMILES) | hERG current change (%, negative = inhibition) at 10uM [%]
C1CCCC(NC2=NCCO2)CCC1 | 16.3
O=C(CCc1nc2ccccc2s1)c1ccccc1 | -4.47
CCCCC1=NN2C(=N)CC(=O)N=C2S1 | 11.9
CCc1ccc(S(=O)(=O)NCc2cn3ccccc3n2)s1 | -11
Cc1cs/c(=N\N=C\c2cccc([N+](=O)[O-])c2)n1Cc1ccco1 | 15.1
CCOc1ccc(/C=C/C(=O)N2CCOCC2)cc1OC | 1.23
CCS(=O)(=O)c1ccc(C(=O)Nc2cccc(Cl)c2)c(Cl)c1Cl | -3.97
Cc1ccccc1CN1CCc2c(OCC(=O)N3CCCc4ccccc43)cccc2C1=O | 3.93
COc1ccc(Cl)cc1-c1nc(SCC(=O)NCC2CCCO2)n[nH]1 (stereo not drawn) | 0.836
CCn1c(SCC(=O)NC(C)c2ccccc2)nc2ccccc21 (stereo not drawn) | 18
O=[N+]([O-])c1ccccc1Nc1ccc(O)cc1 | 6.97
CCn1c(SCC(=O)NC2CCCc3ccccc32)nnc1-c1cccs1 (stereo not drawn) | -24.6
COc1ccc(NC2CCCN(C(=O)c3ccc(C)nc3)C2)cc1 (stereo not drawn) | -10.7
CCCCCN(C(=O)CCC(=O)OCC(=O)N(C)Cc1ccc(C)cc1)c1c(N)n(CCCC)c(=O)[nH]c1=O | 1.93
O=C(Oc1ccc2ccc(=O)oc2c1)N1CCOCC1 | 8.7
Cc1ccccc1NS(=O)(=O)c1ccc(C)c(NS(C)(=O)=O)c1C | 16.8
CCN1c2ccccc2S(=O)(=O)c2ccccc21 | 0.294
O=C1CC(/C=C/c2ccco2)=Nc2ccccc2N1 | 5.64
Cc1ccc(N(C(=O)c2snc(C(N)=O)c2N)C(C(=O)NC2CCCC2)c2ccncc2)cc1 (stereo not drawn) | -12
Cn1c(N)c(C(=O)c2cc(-c3ccccc3)nc3ccccc23)c(=O)n(C)c1=O | -3.5
COc1ccccc1N1C(=O)CC(c2ccccc2)CC1=O | 8.09
O=C(c1cccc(F)c1)N1CCN(C(=O)C2CC2)CC1 | 14
